Substitutions are numbered along the chain they refer to. This is one part of the list.
T1: UNK ZnF1-3 (human, UniProt Q9C0B0 31-174)
T1 sequence: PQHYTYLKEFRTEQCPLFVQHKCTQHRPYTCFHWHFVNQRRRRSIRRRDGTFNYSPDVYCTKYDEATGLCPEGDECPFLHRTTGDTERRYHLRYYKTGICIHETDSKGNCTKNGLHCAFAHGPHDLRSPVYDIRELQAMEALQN

B1: chr5:128440902:128440903:+_ENSG00000066583_ENST00000173527|hu_mus|hu_hu_hu_mus_True|8_68 (ssRNA)
RNA: GGGAGUUCUACAGUCCGACGAUCUUGAACGGUGCUGCCAAGUCCUUUGGGGUAUUGUUCCGUUAUGAUAACAGGAAUCCCUAAGAUCCGAGCUCCUUGCAACAGUCUCUGUCCCACACUAAUGAUGUCCCCAAAAUAUUUGAUCAACAGAGGAUUGAGCAUCA
B2: chr5:141111964:141111965:-_ENSMUSG00000036565_ENSMUST00000042661|mus_hu|FALSE|FALSE (ssRNA)
RNA: GGGAGUUCUACAGUCCGACGAUCGUGCUCCUCGCUCUUGCGCCGCCGGCAGCACAGCCAGAAGGAGUAGAAGAGCAGGAAGAGGAGGUCCAGGGCGAGGCAGGCCAGGGCGGCGGCCCCCAGGAGCAGCAGGGCCUGCUGGUACAACAGAGGAUUGAGCAUCA
B3: 41621242_41621362_836_CDS_ENSG00000064042_ENST00000508501|human|control|control (ssRNA)
RNA: GGGAGUUCUACAGUCCGACGAUCGACGUAGGCCGUCUGAUUGCUUUUGUUCGGGAGGUACUGGUUAAAAGGCACUGCUGAUUUCGGCUCACCAUGGGAAGUCCGCCGUGCAGACAUGUCAUCCUUCUUCACAUCUGGCAGCUUCAACAGAGGAUUGAGCAUCA
B4: chr5:138606049:138606050:-_ENSMUSG00000029730_ENSMUST00000000505|mus_hu|FALSE|FALSE (ssRNA)
RNA: GGGAGUUCUACAGUCCGACGAUCGAGCUCCUCAUAUUCAUCCAGAGCCGCCUGGAACUGGGCGGGUGUGAAGCCACGAGAUACACAGCGCUGCUCUGCCUCAGAGAACCGGACACUUCGGCCCCCUGAGACCAGUUCACGGACCAACAGAGGAUUGAGCAUCA
B5: chr17:88379672:88379673:+_ENSMUSG00000005370_ENSMUST00000005503|mus_mus|FALSE|FALSE (ssRNA)
RNA: GGGAGUUCUACAGUCCGACGAUCUCCCUUUUGGGCUUCCUUUGACUUUGAACCUGUAUAUGGCUUUAACAUCCUUUUGCUAACCCAGCCCCUUGUUGGGCUGUCAUCAAAGAACUGUACAUGAACACGGACAGAUUUCCCUUUCAACAGAGGAUUGAGCAUCA
B6: chr11:93987321:93987322:+_ENSMUSG00000020859_ENSMUST00000103168|mus_hu|motif|central (ssRNA)
RNA: GGGAGUUCUACAGUCCGACGAUCUACAAAGUUACAUUCUGAACCCCAGGGAUUCCAUAAUAGAAAUAAAUACUGAAAUAACGGCAUUGCUAAAUGAGCUCUUUGCUCAUAGAAAUGAAGCUCAGCCUCUAAGAGACAGCAAGUCAACAGAGGAUUGAGCAUCA
B7: chr1:55135153:55135154:-_ENSMUSG00000025980_ENSMUST00000027123|mus_hu|FALSE|FALSE (ssRNA)
RNA: GGGAGUUCUACAGUCCGACGAUCUUCAUUAAUAAAGGUAAAGCACUAGUCUAGGAGUUAGAACAUGCCACCUCCCAUACCACCUCCCAUUCCACCCAUUGCACCCAUUCCAGGGUCCUUCUCUUCUUUAGGAAUUUCUGUGACCAACAGAGGAUUGAGCAUCA
B8: chr4:107087291:107087292:+_ENSMUSG00000028614_ENSMUST00000139560|mus_hu|FALSE|FALSE (ssRNA)
RNA: GGGAGUUCUACAGUCCGACGAUCUUUUUAAUCUUGUAACUUAAGAACUGAGUUUUUCCACAUUCCUUUAUAUAGAGUUAGCAUCUGUAAACUGAGACCCUUUUUUGGGUAAUCAUACAAAUUUAAUUUGUCCCUGGAAACAAACAACAGAGGAUUGAGCAUCA
B9: chr6:124414581:124414582:-_ENSMUSG00000008153_ENSMUST00000008297|mus_mus|FALSE|FALSE (ssRNA)
RNA: GGGAGUUCUACAGUCCGACGAUCGCGGUGCUAAGCACGCCAGGCCAGGCGUUCCUAUCCCCUGGGAGCCUCAAGCCUGCUAAUGCCACCUUGGGGGAGAAAUGCAGAGACUACGAGGGAAGGGCAGGGGGACAAGAUCGGAAACAACAGAGGAUUGAGCAUCA
B10: chr3:10015032:10015033:+_ENSMUSG00000027533_ENSMUST00000029046|mus_hu|FALSE|FALSE (ssRNA)
RNA: GGGAGUUCUACAGUCCGACGAUCGUUUUUACCAUCACAAGUGAUGAUACAAUCUGGCUUGGCCAUUGCGCCCAUUUUUCGCAAAGCUAUUCCCACUCCUAGCUCCUUCAUGUAUUCAUCAAAGCCUUUGCUGUCCACCAGGCGCAACAGAGGAUUGAGCAUCA
B11: 16557741_16557861_4169_CDS_ENSMUSG00000070808_ENSMUST00000094821|mouse|control|control (ssRNA)
RNA: GGGAGUUCUACAGUCCGACGAUCCGCCUGGGUAGCAGGAGGGAGUGGGGGCGGAGCUGGGUGUGGCGGAGGCUCCGCCCCUUUCGCUGGGGUUGGAGCCGGCAAGGGCUGAUGCACAGGAUCCAGUGCAGUGUUGUGCACCACCAACAGAGGAUUGAGCAUCA
B12: 24661885_24671262_2684_CDS_ENSMUSG00000036893_ENSMUST00000102938|mouse|control|control (ssRNA)
RNA: GGGAGUUCUACAGUCCGACGAUCCUCGUUGUCCCGGAUGUUGAUGUCAGAGCCCUUAGACAGCAGCAGCUUCACCAGCUCCACGUGCUUGUACUCAGUGGCCCAGAUCAUAGGUGUCCAUCCACCGUCAUCCUGGCAGUUGACCAACAGAGGAUUGAGCAUCA
B13: chr1:39494564:39494565:+_ENSG00000168653_ENST00000372967|hu_hu|hu_hu_hu_mus_True|38_68 (ssRNA)
RNA: GGGAGUUCUACAGUCCGACGAUCAUGCAUUCGCCUCAUCGUUUUGUACCGAAGCAAGCACUCUUCGAAAUCAUCAUACUCUAUCUUGCACUCCUUUUCUGCCCGAGUCCCACCGAUCCCGUGUGCACACUCUAUCCACUCUUUCAACAGAGGAUUGAGCAUCA
B14: chr2:42472670:42472671:+_ENSG00000143924_ENST00000318522|hu_mus|motif|central (ssRNA)
RNA: GGGAGUUCUACAGUCCGACGAUCCGUGACUCAAGAGCUGAGAGGCGGUCUUGAACGUCAGAGGUACUUGCAGCAGAAAUACGGUCAUCGAGGCUGCCGGCGAAACCGUCCAUCUUGCGGGGACCGCGCCGGGCUCGGGGCUCACAACAGAGGAUUGAGCAUCA
B15: chr9:104324587:104324588:+_ENSG00000155827_ENST00000389120|hu_hu|FALSE|FALSE (ssRNA)
RNA: GGGAGUUCUACAGUCCGACGAUCUUUGCGCUGGCGGGUGUCAUAGCGUGUCUUCACACACUCAAAGCAGAAGACAUGAAAACACUUAGUAAGAACAGCAUCCUUUUUACGCAUGUUACAGCACGGACAGGUCAAGCGUGCCUUCAACAGAGGAUUGAGCAUCA
B16: chr4:95585135:95585136:+_ENSG00000163110_ENST00000317968|hu_hu|FALSE|FALSE (ssRNA)
RNA: GGGAGUUCUACAGUCCGACGAUCCUUACACAGGGGCUUGUCCUUCUUGGAGAAAAAGGUCUGACCUUCCAAACUUUCACAACACACUGAGCAUACAAAGCAAGUGUCAUGCCAGGUGUAGCCCAGAGCUUCCAGGAACAUGUCCAACAGAGGAUUGAGCAUCA
B17: chrX:153986339:153986340:-_ENSMUSG00000046873_ENSMUST00000058098|mus_mus|motif|central (ssRNA)
RNA: GGGAGUUCUACAGUCCGACGAUCCACCAGGGACAUAAGACAUUCCAAGCUUUACUAUGUCAACAUAUAUUUACAGUAACGGUUCGACAAUCCUUUUUACAGCUUAAAUAGAAGCAUGCUUUUCUAGCCAUAAAUAACACUAAUCAACAGAGGAUUGAGCAUCA
B18: chr12:55961440:55961441:-_ENSMUSG00000062929_ENSMUST00000078124|mus_hu|motif|central (ssRNA)
RNA: GGGAGUUCUACAGUCCGACGAUCGAUAUUCAAAAUAUCUUUAGUGUUGCAGGACUCACAUGGUAAACAUAAAACUCCGGCACUUAUUCAGUAGUGUACACUCAAUGGAAAACAAAAAGGCAUUAAUAACAGCUAUUUCUUUUACAACAGAGGAUUGAGCAUCA
B19: chr5:40834624:40834625:-_ENSG00000145592_ENST00000508493|hu_mus|FALSE|FALSE (ssRNA)
RNA: GGGAGUUCUACAGUCCGACGAUCGUUAUACUUCCUCUUGCGCUUGGCAGGGUAGCCACACUUGCCACAAGUCGACUUCUGAAGGUGGUAGGCCUUGGAGCCACAGCGGCGGCACAGCGUGUGCGUCUUGUUGCGACGCUUACCCAACAGAGGAUUGAGCAUCA
B20: chr15:43486971:43486972:+_ENSG00000166946_ENST00000300213|hu_hu|motif|central (ssRNA)
RNA: GGGAGUUCUACAGUCCGACGAUCGAGCUCCUUGAUUCUAUUCAUGCAAUGAUCAAUGGCAUUAAUAAGUAAAGGGAUCCAACGGUCUUCUGGCUGAGGGGUCACAUGACUUGCUUUUGUAAUUUCAAGUGCCUUCUUUAAAACCAACAGAGGAUUGAGCAUCA
B21: chr5:128440902:128440903:+_ENSG00000066583_ENST00000173527|hu_mus|hu_hu_hu_mus_True|58_58 (ssRNA)
RNA: B1 RNA with A72U, C78U, G84A, A135G
B22: chr11:46765198:46765199:-_ENSG00000175216_ENST00000415402|hu_hu|motif|central (ssRNA)
RNA: GGGAGUUCUACAGUCCGACGAUCACAGAAUACAGUGACCCUUCAGGGCGACAGAGAAGAGCUCACAAACUGAAAGGAAAACGGUUAAAGAGUUUCUAAUAUUAACUAUUAAAAAGCUAGGAAAGAUUAGGACAAUUUUACAAACAACAGAGGAUUGAGCAUCA

Target: T1, UNK ZnF1-3
Test: nsRBNS (natural sequence RNA bind-n-seq); RBNS binding buffer (assumed for nsRBNS): 25 mM Tris pH 7.5, 150 mM KCl, 3 mM MgCl2, 0.01% Triton X-100, 500 ug/ml BSA, 20 U/ml SUPERase-In, 4 C; UNK is unkempt and MSI1 is Musashi-1; names of the RNAs are library labels; protein concentration not given here; high values mean tight binding

Binder	binding signal
B1	0.849 enrichment R
B2	1.57 enrichment R
B3	0.65 enrichment R
B4	0.806 enrichment R
B5	0.547 enrichment R
B6	1.28 enrichment R
B7	1.13 enrichment R
B8	0.707 enrichment R
B9	1.19 enrichment R
B10	0.787 enrichment R
B11	0.722 enrichment R
B12	1.08 enrichment R
B13	0.749 enrichment R
B14	1.12 enrichment R
B15	0.559 enrichment R
B16	1.21 enrichment R
B17	1.28 enrichment R
B18	1.13 enrichment R
B19	0.51 enrichment R
B20	1.05 enrichment R
B21	0.939 enrichment R
B22	2.09 enrichment R

Reference: paper PMC12136788
